# Reference: the supplement of paper PMC3334620
# In all, about 33,000 sequences were measured (“E-score (-0.5 to 0.5)”: median about -0.016, highest 2% from about 0.32 on). The list shows a part of the results.
# Biological target: T1, Stp1 (UniProt B3LFK1)
# T1 sequence: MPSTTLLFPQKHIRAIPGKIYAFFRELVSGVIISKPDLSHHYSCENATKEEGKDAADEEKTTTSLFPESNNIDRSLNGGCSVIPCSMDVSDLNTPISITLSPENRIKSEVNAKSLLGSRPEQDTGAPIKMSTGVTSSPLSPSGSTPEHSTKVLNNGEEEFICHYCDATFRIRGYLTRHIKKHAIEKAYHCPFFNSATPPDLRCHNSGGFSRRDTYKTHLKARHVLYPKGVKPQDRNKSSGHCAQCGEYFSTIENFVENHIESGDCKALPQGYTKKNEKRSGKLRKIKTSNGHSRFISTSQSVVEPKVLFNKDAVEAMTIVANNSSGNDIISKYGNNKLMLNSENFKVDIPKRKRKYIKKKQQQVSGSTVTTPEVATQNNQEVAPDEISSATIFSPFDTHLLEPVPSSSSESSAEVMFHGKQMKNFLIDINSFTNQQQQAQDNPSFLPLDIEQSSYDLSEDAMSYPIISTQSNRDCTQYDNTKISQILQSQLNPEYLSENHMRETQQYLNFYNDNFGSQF
# Assay: PBM E-score (8-mer binding enrichment) (E-score (-0.5 to 0.5)); higher = stronger / more preferred TF binding; most listed sequences are background and not binding sites
# Details: protein concentration: 200 nM; construct: GST-full length
# Outline: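 Full-length yeast transcription factors or their DNA-binding domains, GST-tagged and expressed with PURExpress, were applied at about 100-200 nM to universal all-10-mer Agilent arrays. These arrays had been made double-stranded by primer extension on fresh or once-stripped slides. Detection used fluorescent anti-GST, normalisation used masliner, and E-scores for ungapped eight-base words pooled with reverse complements came from the Universal PBM Analysis Suite.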
row,Sequence,PBM E-score
1,CTTAGCCA,0.13
2,CGGGTACG,-0.028
3,CTCAGTGC,0.0373
4,CAGGGAGC,-0.343
5,GAGGAGAA,-0.2
6,CATAACTA,0.0928
7,CAATACAA,-0.0234
8,GGTGCCTA,0.0845
9,CACATTTC,0.0626
10,CGCACAAG,0.0252
11,CAGAGCTA,-0.171
12,AAAAGATT,0.00836
13,TTTGAAAA,0.217
14,ATTTATTA,0.324
15,ATCTCCAT,-0.0369
16,AATTTGAG,0.0102
17,GGACTGAC,-0.21
18,AATCAGAA,0.00145
19,CACTGTCG,-0.188
20,GGCCAGCC,-0.251
21,CGAAGGAC,-0.0962
22,ACAAGCTC,-0.218
23,ACCCCCCG,-0.334
24,ACTATTTC,0.0777

row,Sequence,PBM E-score
1,GACTAGTA,0.0942
2,CCGTTTCG,0.255
3,AATTCGAC,-0.244
4,ACAGTTCG,0.193
5,CGCACCGA,0.0478
6,GATATCAC,-0.0115
7,CGTTGCAC,0.13
8,CCACTGAC,0.0351
9,TGGACAAA,-0.0269
10,CTCTGGGC,-0.215
11,GCCTTAAC,-0.0752
12,CCTGTAGC,-0.169
13,TACGATGA,-0.0581
14,ACCCTACC,-0.119
15,CTTGTGCA,0.141
16,AGAGCGTA,-0.122
17,CGACGCGC,0.199
18,TATCATAA,0.113
19,CGAACCGC,0.0548
20,AGTGAGCA,-0.269
21,ATCGAGAG,-0.151
22,AATGACGC,0.09
23,GACGCGCA,-0.105
24,AACCGGGG,-0.218

row,Sequence,PBM E-score
1,AACACCGG,-0.0221
2,CGAGGCGC,0.456
3,AGGGGTAA,-0.24
4,AAGATGGT,-0.0801
5,ACAGGACT,-0.213
6,GATCAGGA,-0.0559
7,GATAGATA,-0.0169
8,CTCCACCC,-0.193
9,ACATATAG,0.153
10,AAGGAACT,-0.0685
11,TGTGAAAA,0.0323
12,CGAATTGA,-0.0676
13,GATTGCAC,0.0784
14,AAACGACA,0.167
15,AGTATTGA,0.0696
16,CCTCTGCG,-0.205
17,ACGTAAAG,-0.00101
18,AGATCTGA,-0.126
19,CCTAGTCC,-0.292
20,TCTGTACA,0.112
21,CGCGTGTA,0.11
22,CGATTTTC,0.175
23,ACGCGTCG,0.166
24,AGCTACGA,-0.0885

row,Sequence,PBM E-score
1,CATTCTCC,-0.0271
2,ACGATGTG,0.101
3,TCCTTCAA,-0.18
4,TCCATCCA,-0.172
5,GTCGCTCA,-0.108
6,CTCAGCCC,-0.353
7,AAGGCGGG,-0.112
8,ACCGCAAG,0.0229
9,CTTTGTCA,0.129
10,TCGCTTCA,0.00501
11,GGCAGACA,-0.0599
12,GCCCCAAA,-0.0406
13,GCGCTTCC,0.111
14,GCTTGAAA,0.0513
15,ATAACGTC,-0.0778
16,AATACACC,0.116
17,CGACCTAG,-0.0414
18,AGACTTCC,-0.284
19,GATCATAC,0.0959
20,AGGAATGG,-0.0542
21,ATCTGAGA,-0.0556
22,CACATATC,0.0808
